In EPA's CvTdb concentration-time database:
The source gives many values for each of these; only a part stands here.

How the values were obtained:
Assay in all cases: concentration in liver after dosing
Rat [1] = conditions: 6744 h; dosed: 2,3,4,7,8-pentachlorodibenzofuran; 200 mg/kg; oral; Female; Harlan Sprague Dawley
Rat [2] = conditions: 5088 h; dosed: 2,3,4,7,8-pentachlorodibenzofuran; 200 mg/kg; oral; Female; Harlan Sprague Dawley
Rat [3] = conditions: 6000 h; dosed: 2,3,4,7,8-pentachlorodibenzofuran; 200 mg/kg; oral; Female; Harlan Sprague Dawley
Rat [4] = conditions: 6000 h; dosed: 2,3,4,7,8-pentachlorodibenzofuran; 200 mg/kg; oral; Female; Harlan Sprague Dawley; remark: listed apart in the source
Rat [5] = conditions: 3984 h; dosed: 2,3,4,7,8-pentachlorodibenzofuran; 200 mg/kg; oral; Female; Harlan Sprague Dawley
Rat [6] = conditions: 288 h; dosed: 2,3,4,7,8-pentachlorodibenzofuran; 200 mg/kg; oral; Male; F344
Rat [7] = conditions: 6744 h; dosed: 2,3,4,7,8-pentachlorodibenzofuran; 200 mg/kg; oral; Female; Harlan Sprague Dawley; remark: listed apart in the source
Rat [8] = conditions: 288 h; dosed: 2,3,4,7,8-pentachlorodibenzofuran; 200 mg/kg; oral; Male; F344; remark: listed apart in the source
Rat [9] = conditions: 2208 h; dosed: 2,3,4,7,8-pentachlorodibenzofuran; 200 mg/kg; oral; Male; F344
Rat [10] = conditions: 1464 h; dosed: 2,3,4,7,8-pentachlorodibenzofuran; 200 mg/kg; oral; Male; F344
Rat [11] = conditions: 8184 h; dosed: 2,3,4,7,8-pentachlorodibenzofuran; 200 mg/kg; oral; Female; F344
Rat [12] = conditions: 2880 h; dosed: 2,3,4,7,8-pentachlorodibenzofuran; 200 mg/kg; oral; Female; Harlan Sprague Dawley
Rat [13] = conditions: 8760 h; dosed: 2,3,4,7,8-pentachlorodibenzofuran; 200 mg/kg; oral; Female; F344
Rat [14] = conditions: 1464 h; dosed: 2,3,4,7,8-pentachlorodibenzofuran; 200 mg/kg; oral; Male; F344; remark: listed apart in the source
Rat [15] = conditions: 2880 h; dosed: 2,3,4,7,8-pentachlorodibenzofuran; 200 mg/kg; oral; Female; Harlan Sprague Dawley; remark: listed apart in the source
Rat [16] = conditions: 6000 h; dosed: 2,3,4,7,8-pentachlorodibenzofuran; 200 mg/kg; oral; Female; Harlan Sprague Dawley; remark: listed apart in the source
Rat [17] = conditions: 288 h; dosed: 2,3,4,7,8-pentachlorodibenzofuran; 200 mg/kg; oral; Male; F344; remark: listed apart in the source
Rat [18] = conditions: 3984 h; dosed: 2,3,4,7,8-pentachlorodibenzofuran; 200 mg/kg; oral; Female; Harlan Sprague Dawley; remark: listed apart in the source
Rat [19] = conditions: 6000 h; dosed: 2,3,4,7,8-pentachlorodibenzofuran; 200 mg/kg; oral; Female; Harlan Sprague Dawley; remark: listed apart in the source
Rat [20] = conditions: 120 h; dosed: 2,3,4,7,8-pentachlorodibenzofuran; 200 mg/kg; oral; Male; F344
Rat [21] = conditions: 2208 h; dosed: 2,3,4,7,8-pentachlorodibenzofuran; 200 mg/kg; oral; Male; F344; remark: listed apart in the source
Rat [22] = conditions: 8760 h; dosed: 2,3,4,7,8-pentachlorodibenzofuran; 200 mg/kg; oral; Female; F344; remark: listed apart in the source
Rat [23] = conditions: 6744 h; dosed: 2,3,4,7,8-pentachlorodibenzofuran; 200 mg/kg; oral; Female; Harlan Sprague Dawley; remark: listed apart in the source
Rat [24] = conditions: 5088 h; dosed: 2,3,4,7,8-pentachlorodibenzofuran; 200 mg/kg; oral; Female; Harlan Sprague Dawley; remark: listed apart in the source
Rat [25] = conditions: 2208 h; dosed: 2,3,4,7,8-pentachlorodibenzofuran; 200 mg/kg; oral; Male; F344; remark: listed apart in the source
Rat [26] = conditions: 120 h; dosed: 2,3,4,7,8-pentachlorodibenzofuran; 200 mg/kg; oral; Male; F344; remark: listed apart in the source
Rat [27] = conditions: 5088 h; dosed: 2,3,4,7,8-pentachlorodibenzofuran; 200 mg/kg; oral; Female; Harlan Sprague Dawley; remark: listed apart in the source
Rat [28] = conditions: 3984 h; dosed: 2,3,4,7,8-pentachlorodibenzofuran; 200 mg/kg; oral; Female; Harlan Sprague Dawley; remark: listed apart in the source
Rat [29] = conditions: 2208 h; dosed: 2,3,4,7,8-pentachlorodibenzofuran; 200 mg/kg; oral; Male; F344; remark: listed apart in the source
Rat [30] = conditions: 8184 h; dosed: 2,3,4,7,8-pentachlorodibenzofuran; 200 mg/kg; oral; Female; F344; remark: listed apart in the source
Rat [31] = conditions: dosed: 2,3,4,7,8-pentachlorodibenzofuran, 200 mg/kg, oral
Rat [32] = conditions: 768 h; dosed: 2,3,4,7,8-pentachlorodibenzofuran; 200 mg/kg; oral; Male; F344
Rat [33] = conditions: 7416 h; dosed: 2,3,4,7,8-pentachlorodibenzofuran; 200 mg/kg; oral; Female; F344
Rat [34] = conditions: 120 h; dosed: 2,3,4,7,8-pentachlorodibenzofuran; 200 mg/kg; oral; Male; F344; remark: listed apart in the source
Rat [35] = conditions: 8760 h; dosed: 2,3,4,7,8-pentachlorodibenzofuran; 200 mg/kg; oral; Female; F344; remark: listed apart in the source
Rat [36] = conditions: 7416 h; dosed: 2,3,4,7,8-pentachlorodibenzofuran; 200 mg/kg; oral; Female; F344; remark: listed apart in the source
Rat [37] = conditions: 1464 h; dosed: 2,3,4,7,8-pentachlorodibenzofuran; 200 mg/kg; oral; Male; F344; remark: listed apart in the source
Rat [38] = conditions: 8184 h; dosed: 2,3,4,7,8-pentachlorodibenzofuran; 200 mg/kg; oral; Female; F344; remark: listed apart in the source
Rat [39] = conditions: 5088 h; dosed: 2,3,4,7,8-pentachlorodibenzofuran; 200 mg/kg; oral; Female; Harlan Sprague Dawley; remark: listed apart in the source
Rat [40] = conditions: 288 h; dosed: 2,3,4,7,8-pentachlorodibenzofuran; 200 mg/kg; oral; Male; F344; remark: listed apart in the source
Rat [41] = conditions: 8184 h; dosed: 2,3,4,7,8-pentachlorodibenzofuran; 200 mg/kg; oral; Female; F344; remark: listed apart in the source
Rat [42] = conditions: 1464 h; dosed: 2,3,4,7,8-pentachlorodibenzofuran; 200 mg/kg; oral; Male; F344; remark: listed apart in the source
Rat [43] = conditions: 3984 h; dosed: 2,3,4,7,8-pentachlorodibenzofuran; 200 mg/kg; oral; Female; Harlan Sprague Dawley; remark: listed apart in the source
Rat [44] = conditions: 768 h; dosed: 2,3,4,7,8-pentachlorodibenzofuran; 200 mg/kg; oral; Male; F344; remark: listed apart in the source
Rat [45] = conditions: 768 h; dosed: 2,3,4,7,8-pentachlorodibenzofuran; 200 mg/kg; oral; Male; F344; remark: listed apart in the source
Rat [46] = conditions: 6744 h; dosed: 2,3,4,7,8-pentachlorodibenzofuran; 200 mg/kg; oral; Female; Harlan Sprague Dawley; remark: listed apart in the source
Rat [47] = conditions: 7416 h; dosed: 2,3,4,7,8-pentachlorodibenzofuran; 200 mg/kg; oral; Female; F344; remark: listed apart in the source
Rat [48] = conditions: 768 h; dosed: 2,3,4,7,8-pentachlorodibenzofuran; 200 mg/kg; oral; Male; F344; remark: listed apart in the source
Rat [49] = conditions: 2880 h; dosed: 2,3,4,7,8-pentachlorodibenzofuran; 200 mg/kg; oral; Female; Harlan Sprague Dawley; remark: listed apart in the source
Rat [50] = conditions: 8760 h; dosed: 2,3,4,7,8-pentachlorodibenzofuran; 200 mg/kg; oral; Female; F344; remark: listed apart in the source

Clc1cc2oc3c(Cl)c(Cl)c(Cl)cc3c2cc1Cl [2,3,4,7,8-pentachlorodibenzofuran]
Conditions	concentration in liver [pg/g]
Rat [1]	1030
Rat [2]	969
Rat [3]	1120
Rat [4]	794
Rat [5]	1880
Rat [6]	3840
Rat [7]	718
Rat [8]	4640
Rat [9]	1840
Rat [10]	3360
Rat [11]	937
Rat [12]	2110
Rat [13]	687
Rat [14]	2190
Rat [15]	1650
Rat [16]	1330
Rat [17]	2850
Rat [18]	859
Rat [19]	953
Rat [20]	4000
Rat [21]	3070
Rat [22]	457
Rat [23]	855
Rat [24]	1180
Rat [25]	2110
Rat [26]	4960
Rat [27]	1470
Rat [28]	1690
Rat [29]	2020
Rat [30]	718
Rat [32]	4160
Rat [33]	522
Rat [34]	4440
Rat [35]	391
Rat [36]	967
Rat [37]	3110
Rat [38]	690
Rat [39]	777
Rat [40]	2950
Rat [41]	613
Rat [42]	3440
Rat [43]	1590
Rat [44]	3840
Rat [45]	4270
Rat [46]	909
Rat [47]	845
Rat [48]	3770
Rat [49]	1430
Rat [50]	429

concentration in liver [pg/g], Rat [31]
Conditions	F344	Harlan Sprague Dawley
1.5 h, Female	–	446
24 h, Female	–	4320
120 h, Male	4920	5000
288 h, Male	3660	–
768 h, Male	3940	–
1464 h, Male	4500	–
2208 h, Male	3280	–
2880 h, Female	–	1990
2880 h, Male	2050	–
3984 h, Female	–	1450
5088 h, Female	–	1050
6000 h, Female	–	919
6744 h, Female	–	1110
7416 h, Female	1130	1030
8184 h, Female	573	–
8760 h, Female	441	–
